Out of some 420,000 compounds screened, about 50,000 (12%) were called active. The shares of active, inactive and inconclusive entries below differ from those in the screen. Calls come from the whole dose curve; as a rule, active = well fitted inhibition curve with a large enough effect; inconclusive = small, poorly fitted or top-dose-only effect; inactive = flat fitted curve, though single readings scatter. No potency is given beside an inconclusive call; the fits are too rough.
Test: qHTS for Inhibitors of human tyrosyl-DNA phosphodiesterase 1 (TDP1): qHTS in cells in presence of CPT; note: nearly all actives have a fitted effect of over 55% in size
Details: chicken DT40 Tdp1-/-;hTDP1 cells + 20 nM CPT, ATP luminescence, 48 h; activity change, negative = growth inhibition: at 46.2 µM (top of the series)
Procedure, shortened: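 Chicken DT40 Tdp1-/- cells complemented with human TDP1, 400 cells/well, exposed to compounds plus 20 nM camptothecin for at least 48 h at 37 C; viability read as ATP content by CellTiter-Glo luminescence.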
% is set by controls: 0 for no effect and ±100 for the full control effect; potency is the fitted concentration of half-maximal effect; tags give direction and shape of the fitted curve.

SMILES | Potency | activity change, negative = growth inhibition
COc1ccc(-c2[nH]ncc2CN2CCC(O)(c3ccc(Cl)cc3)CC2)cc1 | inconclusive [inhibitor, single point] | –
O=S(=O)(CCSc1ccc(C(F)(F)F)cn1)c1ccc(Cl)cc1 | – | inactive: 8.56%
COc1cccc(-n2ccnc2SCC(=O)Nc2ccccc2)c1 | active: 5.8 µM | –
COc1cccc(C2Nc3ccc4ccccc4c3C3=C2C(=O)CC(C)(C)C3)c1OCC(=O)O (configuration not stated) | inconclusive [inhibitor, partial curve, poor fit] | –
Cc1cccc2nc3ccccc3cc12 | – | inactive: 14.5%
O=C(NCC1CC1)NC(=O)c1ccccc1F | inconclusive [inhibitor, full curve] | –
Cc1cc(C)n2nc(C(=O)OCC(=O)N(C)C3CCCCC3)nc2n1 | – | inactive: 15%
CN(C(=O)CCc1nnc(-c2ccc(-c3ccccc3)cc2)o1)C1CCOCC1 | inconclusive [inhibitor, single point] | –
CCOc1ccc(CC2S/C(=N/N=C/c3ccco3)NC2=O)cc1 (configuration not stated) | inconclusive [inhibitor, partial curve] | –
COC(=O)C1=C(C)N(CC2CC2)C(=NCc2cccc(C(F)(F)F)c2)N[C@H]1c1ccccc1 | active: 10.3 µM | –
COC(=O)N1CCC2(CC1)CN(c1ccccc1)C2 | – | inactive: -10.8%
OC1(c2ccc3c(c2)CN(Cc2ccccn2)CCO3)CCN(c2ccccc2F)CC1 | inconclusive [inhibitor, single point] | –
Oc1ccc(CN2CCCc3ccccc32)c2cccnc12 | active: 3.66 µM | –
CCOc1cc(NC(=O)C2CC2)c(OCC)cc1NC(=O)c1ccccc1OCC | inconclusive [inhibitor, single point] | –
Cc1cccc(NS(=O)(=O)c2csc(C(N)=O)c2)c1C | – | inactive: -19.1%
CC1CN=C(NC(=O)c2cccc([N+](=O)[O-])c2)S1 (configuration not stated) | inconclusive [inhibitor, partial curve] | –
Cc1ccc(C(c2nnnn2C2CCCCC2)N2CCN3CCCC3C2)cc1 (configuration not stated) | inconclusive [inhibitor, single point] | –
CC(C)C(NC(=O)CN(c1ccc2c(c1)OCCO2)S(=O)(=O)c1ccccc1)C(C)C | – | inactive: -5.38%
COP(C)(=O)c1c(C)nn(-c2ccccc2)c1C (configuration not stated) | – | inactive: -3.35%
CCCC1NC(=O)c2cccnc2-n2c1nc1cc(C)cc(C)c1c2=O (configuration not stated) | inconclusive [inhibitor, single point] | –
COc1ccc(NS(=O)(=O)c2cc(NC(=O)c3cnccn3)ccc2OC)cc1Br | inconclusive [inhibitor, single point] | –
COC(CNC(=O)Cn1nc(Cc2ccncc2)c2ccccc2c1=O)OC | – | inactive: 2.78%
Cc1onc(-c2c(F)cccc2Cl)c1C(=O)Nc1nc2c(s1)CCCC2 | inconclusive [inhibitor, partial curve, poor fit] | –
CCOc1ccccc1Nc1cc(-c2ccccc2)nc(C)n1 | inconclusive [inhibitor, single point] | –

SMILES | Potency | activity change, negative = growth inhibition
COc1ccc(NC(=O)C2Cc3c(-c4cccc(C(N)=O)c4)ccnc3O2)cc1 (configuration not stated) | active: 5.8 µM | –
Cc1ccc(NC(=O)CSC2=NN3CCCC(=O)N=C3S2)c(C)c1 | inconclusive [inhibitor, single point] | –
COc1cc(C(=S)N2CCCC2)cc(Cl)c1OCC(=O)Nc1ccc(C)cc1C | active: 13 µM | –
COC(=O)[C@]12CCCCC=C1N(Cc1ccccc1)C(=O)[C@H](CC(=O)NCc1ccc(OC)c(OC)c1)C2 | active: 23.1 µM | –
CCC(C(=O)OC)n1cnc2scc(-c3ccc(C)c(C)c3)c2c1=O (configuration not stated) | inconclusive [inhibitor, single point] | –
Cc1nnc2sc(SCC(=O)Nc3nccs3)nn2c1=O | inconclusive [inhibitor, single point] | –
COc1ccc(F)cc1S(=O)(=O)NC1CCCC1 | inconclusive [inhibitor, partial curve, poor fit] | –
C(=C\c1ccc2nncn2c1)/c1ccccc1 | inconclusive [inhibitor, partial curve, poor fit] | –
COc1ccc(C2Nc3cccc4cccc(c34)N2)cc1 | active: 20.6 µM | –
COc1ccc(/C=C/C(=O)Nc2c(C)nn(C)c2C)cc1COc1ccc(Br)cc1 | inconclusive [inhibitor, single point] | –
O=C(NNC(=O)c1cnccn1)c1ccc(Cl)cc1 | inconclusive [inhibitor, single point] | –
CC(=O)Cc1nsc(NC(=O)c2ccc(-c3cc(C(F)(F)F)ccc3Cl)o2)n1 | active: 20.6 µM | –
CC(C)Oc1ccc(CNC(=O)Cn2ccc3cc(S(=O)(=O)N4CCCC4)ccc32)cc1 | – | inactive: -20%
O=C(c1ccc(COc2ccccc2Cl)o1)N1CCCC1 | inconclusive [inhibitor, single point] | –
COC(=O)c1sc2ccccc2c1NC(=O)c1ccc(S(=O)(=O)N2CC(C)CC(C)C2)cc1 (configuration not stated) | active: 20.6 µM | –
CCc1c(C)c2ccc(OCC(N)=O)cc2oc1=O | – | inactive: -8.85%
O=C(NC(=S)Nc1ccc(N2CCOCC2)c(Cl)c1)C(c1ccccc1)c1ccccc1 | inconclusive [inhibitor, single point] | –
COc1ccc(CCN2CC(C(=O)NCCc3ccccc3C)CCC2=O)cc1 (configuration not stated) | inconclusive [inhibitor, partial curve] | –
Cc1nc(SCC(=O)Nc2cc(Cl)ccc2[N+](=O)[O-])nc(C)c1C | inconclusive [inhibitor, single point] | –
O=C(CCNc1cccc(C(F)(F)F)c1)c1ccco1 | active: 20.6 µM | –
CCC1CSC(Nc2ccc(C(=O)/C=C/c3ccc(Br)cc3)cc2)=N1 (configuration not stated) | inconclusive [inhibitor, single point] | –
CN1CCN(c2nnc(-c3ccc(Cl)cc3)c3ccccc23)CC1 | inconclusive [inhibitor, single point] | –
CCCCc1c(-c2ccc(F)cc2)ncn1CCc1ccccc1OC | inconclusive [inhibitor, single point] | –

— PubChem BioAssay AID686979 (National Center for Advancing Translational Sciences (NCATS), 2013)
